Experimental findings from PubChem BioAssay AID1346428 (National Center for Advancing Translational Sciences (NCATS), 2018) are described below.

Structures are written as SMILES. The campaign covered roughly 48,000 compounds. About 1,200 (2.5%) were called active. Roughly 2% stayed inconclusive and do not appear here.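 Rule for the calls: active = activation of at least 60% and not above a set upper limit (about 1 call in 100 departs from these limits); inconclusive = activation of 40% to 60%, or above that upper limit; inactive = activation under 40%.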 The list shows a part of the results.

The target of the assay is Probable G-protein coupled receptor 32 (Homo sapiens) (UniProt O75388). As to the kind of experiment: qHTS for Agonists of Human Resolvin D1 Receptor DRV1. The following applies: CHO-K1 GPR32 beta-arrestin PathHunter luminescence, 90 min; at 76.9 µM; stronger effect = higher value; zero percent set by DMSO-only wells. The method in brief: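 PathHunter enzyme-fragment complementation, CHO-K1 GPR32 stable line; 2,500 cells/well, overnight attach; cpd 90 min 37 °C 5% CO2; detection reagent 1 h RT; chemiluminescence. DMSO = EC0.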
Sequence of UniProt O75388 (O75388 whole entry, looked up, the tested form may be a part): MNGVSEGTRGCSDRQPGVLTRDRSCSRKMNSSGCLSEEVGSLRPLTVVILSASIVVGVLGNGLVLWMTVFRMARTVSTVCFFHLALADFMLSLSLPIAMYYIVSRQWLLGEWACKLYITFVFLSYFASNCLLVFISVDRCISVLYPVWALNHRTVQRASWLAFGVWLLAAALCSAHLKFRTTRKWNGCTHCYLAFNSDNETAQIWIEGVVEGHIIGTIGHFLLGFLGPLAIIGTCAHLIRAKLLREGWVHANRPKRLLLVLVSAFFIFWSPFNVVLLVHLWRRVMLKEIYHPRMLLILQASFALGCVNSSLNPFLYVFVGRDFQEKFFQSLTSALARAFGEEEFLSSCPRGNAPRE
On the technique in general: Quantitative high-throughput screening tests each substance at several concentrations.
On to `CCCCNc1nc2c(c(=O)n(Cc3ccccc3)c(=O)n2C)n1C`, for which the activation was inactive: -6.66%.

Consider `COc1ccc(N(C)C(=O)c2cc3c(s2)-c2ccccc2OC3)cc1`, for which the activation was inactive: -21.1%.

As to `COc1ccc(CCNC(=O)C(=O)NCC(c2cccnc2)N2CCN(c3ccccc3)CC2)cc1` (stereo not given), the activation was inactive: 6.29%.

As for `CCC(C(=O)NCCc1ccc(Cl)cc1)n1ccc2cc(S(=O)(=O)N3CCCCC3)ccc21` (stereo not given), the activation is inactive: -6.34%.

Turning to `O=C(NCc1ccc(Cl)cc1)c1ccc2c(c1)N(Cc1ccccc1F)C(=O)c1ccccc1S2=O` (stereo not given), the activation is inactive: -14.2%.

For `CCc1ccc(CNC(=O)c2ccc(CS(=O)(=O)Cc3cccc(C)c3)o2)cc1`, the activation was inactive: -8.61%.

With `CCn1c(=O)cc(SCC(=O)NCc2ccc(C)cc2)c2ccccc21`, the activation was active: 69.3%.

`O=C(NCc1ccco1)c1ccc2c(c1)N(Cc1ccccc1F)C(=O)c1ccccc1S2(=O)=O`: the activation is inactive: -37.1%.

For `C=Cc1ccc(Cn2c(=O)n(CC3CCC(C(=O)NC(C)C)CC3)c(=O)c3sccc32)cc1` (stereo not given), the activation is inactive: 15.1%.

In the case of `CCOc1ccccc1-c1nc(C(N)=O)c2c(n1)n(-c1ccc3c(c1)OCO3)c(=O)n2C`, the activation is inactive: -7.3%.

For the molecule `CC(=O)Nc1ccc(S(=O)(=O)N(Cc2ccccc2)Cc2ccccc2)cc1`, the activation was inactive: 12.9%.

In the case of `COc1cccc(NC(=O)CCN2CCN(CCO)CC2)c1`, the activation is inactive: 11%.

With `COc1cccc(-c2ccc3c(N)c(C(=O)Nc4ccccc4C)sc3n2)c1`, the activation was inactive: -17%.

Take `CCCCNC(=O)c1ccc2c(c1)NC(=O)C(CS(=O)(=O)Cc1ccc(F)cc1Cl)N2` (stereo not given): the activation is inactive: -7.67%.

Turning to `CCCC(=O)Nc1ccc2nc(SCc3ccc(C)cc3)sc2c1`, the activation was inactive: 8.29%.

As to `CC(C)CCNC(=O)c1ccc2c(c1)nc1n2CCCCC1`, the activation is inactive: -8.28%.

For `COCCNc1ccc(-c2nc(-c3ccccn3)no2)cc1[N+](=O)[O-]`, the activation is inactive: -0.0064%.

In the case of `COc1ccc(C)cc1NC(=O)Cc1c(C(=O)O)c(C)cn1C`, the activation was inactive: -5.79%.

Turning to `Nc1ccc2oc(Cc3ccc(Cl)cc3)nc2c1`, the activation is inactive: -17.8%.

With `CCCN1CCN(CCCNC(=O)c2ccc(CS(=O)c3ccc(OC)cc3)o2)CC1` (stereo not given), the activation was inactive: -4.11%.

In the case of `CCN(CC)CCNC(=O)c1cc2c(=O)oc3ccc(C)cc3c2s1`, the activation was active: 67.3%.

With `CCCN(CCC)C(=O)CSc1nnc2cc(C)c3ccccc3n12`, the activation was inactive: 10.3%.

For the molecule `O=C(/C=C/c1ccc(Cl)cc1)Nc1nc(-c2cccs2)ns1`, the activation was inactive: 25.1%.

Consider `Cc1cc(C)c(Cn2c3ccccc3c3cnn(CC(=O)NCC(C)c4ccccc4)c(=O)c32)c(C)c1` (stereo not given), for which the activation was inactive: -15.7%.

As for `Cc1ccc(NC(=O)Cn2nnc3sc4c(c3c2=O)CCCC4)c(C)c1`, the activation is inactive: -3.29%.

For `CCn1cc(C(=O)NCc2ccc(F)cc2)c(=O)c2cc(S(=O)(=O)N(C)C)ccc21`, the activation was inactive: -1.45%.

As for `CC(=O)N1CCCc2cc(S(=O)(=O)N(Cc3ccccc3)C(C)C)ccc21`, the activation is inactive: 1.7%.

As for `COc1ccc(-n2c(CCC(=O)O)ccc2-c2ccccc2)c(OC)c1`, the activation is inactive: 24.2%.

In the case of `COc1cc(OC)c(NC(=O)CCNS(=O)(=O)c2ccc3c(c2)oc(=O)n3C)cc1Cl`, the activation was inactive: 8.23%.

With `CCOC(=O)c1ccccc1NC(=O)c1nn(C)c2c1COc1ccccc1-2`, the activation is inactive: -15.8%.

`CC(=O)Nc1cccc(NC(=O)C(=O)NCCc2csc3nc(-c4ccccc4F)nn23)c1`: the activation is inactive: 9.92%.

`Cc1ccc(CNC(=O)CSC2=Nc3ccccc3C3=NC(C)C(=O)N23)cc1` (stereo not given): the activation is inactive: -2.08%.

Consider `Cc1ccc2occ(CC(=O)N3CCN(c4cccc(Cl)c4)CC3)c2c1`, for which the activation was inactive: -35%.

For the molecule `CCCN1CCN(CCCNC(=O)Cn2c(-c3cccs3)cc3cc(Cl)ccc32)CC1`, the activation is inactive: 27.1%.

`Cc1cc(Cl)ccc1NC(=O)c1cc2ccccn2n1`: the activation is inactive: 7.17%.

As to `COc1ccccc1N1CCN(S(=O)(=O)c2ccc(-c3cnc(C4CC4)o3)cc2)CC1`, the activation is inactive: -8.72%.

With `CC(C)CCNC(=O)c1cn(C)c2ccc(S(=O)(=O)N3CCOCC3)cc2c1=O`, the activation was inactive: -4%.

In the case of `Cc1ccc(OCc2nnc(-c3ccccc3)o2)cc1`, the activation was inactive: 18.6%.

With `COc1cc2c(=O)c(S(=O)(=O)c3ccccc3)cn(CC(=O)Nc3ccccc3C)c2cc1OC`, the activation is inactive: 35.6%.

On to `Cc1cc(C)c(NC(=O)Cn2c(=O)n(Cc3ccccc3)c(=O)c3c(C)c(C(=O)N(C)C)sc32)c(C)c1`, for which the activation is inactive: -13.1%.

Turning to `COc1cc2c(cc1OC)C(COc1ccccc1OC)N(C(=O)c1ccccc1OC)CC2` (stereo not given), the activation was inactive: -10.2%.

As to `Cc1c(Cl)cccc1-n1nc(C)c2c(C)cc(=O)n(CC(=O)NCc3ccccc3)c21`, the activation is inactive: -7.14%.

For the molecule `CCc1cccc(NC(=O)CCS(=O)(=O)c2cc3c4c(c2)CCN4C(=O)CC3)c1`, the activation is inactive: 1.25%.

Turning to `Cc1cccc(C(=O)Nc2cccc(OCc3cc(=O)n4ccccc4n3)c2)c1`, the activation is inactive: 0.17%.

For the molecule `CCC(C)NC(=O)CSc1nc2cc3c(cc2c(=O)n1CCCCCC(=O)NCc1ccc(OC)cc1)OCO3` (stereo not given), the activation was inactive: -9.4%.

Turning to `COc1c(Cl)cc(Cl)cc1CNCCSc1nnnn1C`, the activation is inactive: -5.38%.

Take `O=C(Nc1nc2n(n1)C(c1ccc(F)cc1)C=C(c1ccccc1)N2)c1cccc([N+](=O)[O-])c1` (stereo not given): the activation was inactive: -37.3%.

Take `CCC1CCCCN1Cc1cn2c(-c3ccc(Br)cc3)nnc2s1` (stereo not given): the activation is inactive: 14.1%.

For `CCS(=O)(=O)N1CCc2cc(C(=O)Nc3ccc(OC)cc3OC)ccc21`, the activation is inactive: 16.3%.

Take `CC(=O)c1cccc(NC(=O)c2nc(-c3ccccc3)n(-c3cccc(C)c3)n2)c1`: the activation is inactive: 9.97%.

`CCOc1ccccc1NC(=O)CN1CCN(S(=O)(=O)c2ccc(Br)cc2)CC1`: the activation was inactive: -2.49%.

Regarding `COc1ccc(NC(=O)C2CCC(CNS(=O)(=O)c3cccs3)CC2)cc1OC` (stereo not given), the activation was inactive: 0.402%.

As to `Clc1ccccc1-c1nnc(-c2ccccc2CNc2ccccc2)o1`, the activation was inactive: -3.74%.

Turning to `Cc1cccc(CC(=O)Nc2cccc(-c3nc4cccnc4s3)c2)c1`, the activation is inactive: 35%.

Take `CCN1CCc2c(sc(-n3cccc3)c2C(C)NC(=O)Nc2ccccc2C)C1` (stereo not given): the activation was inactive: -24.8%.
